Test results as given in the supplement of paper PMC4967469.

Key:
Assay in all cases: Viability of human cancer cell lines after 72 h of drug (GDSC screen)
Dabrafenib = compound: CC(C)(C)c1nc(-c2cccc(NS(=O)(=O)c3c(F)cccc3F)c2F)c(-c2ccnc(N)n2)s1 [Dabrafenib]; settings: top dose 10 µM
Description: (§1)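 Human cancer cell lines in 384-well plates, medium with 10% serum, drug for 72 h over a 256-fold dose range (nine 2-fold or five 4-fold steps up to the top dose). Adherent lines were fixed and stained with the nucleic acid dye Syto60, suspension lines read with resazurin; signal relative to control wells, capped at 0 and 100%. One two-parameter sigmoid per drug and line, fitted in a mixed model over all curves with the slope shared within a line.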

SN-38 = compound: CCc1c2c(nc3ccc(O)cc13)-c1cc3c(c(=O)n1C2)COC(=O)[C@]3(O)CC [SN-38]; settings: top dose 0.05 µM; top dose inferred
Description: as §1

Methotrexate = compound: CN(Cc1cnc2nc(N)nc(N)c2n1)c1ccc(C(=O)N[C@@H](CCC(=O)O)C(=O)O)cc1 [Methotrexate]; settings: top dose 0.2 µM
Description: as §1

Axitinib = compound: CNC(=O)c1ccccc1Sc1ccc2c(/C=C/c3ccccn3)n[nH]c2c1 [Axitinib]; settings: top dose 2 µM
Description: as §1

Vorinostat = compound: O=C(CCCCCCC(=O)Nc1ccccc1)NO [Vorinostat]; settings: top dose 10 µM
Description: as §1

Cell Line | AUC (Dabrafenib) | IC50 (Dabrafenib) [nM] | AUC (SN-38) | IC50 (SN-38) [nM] | AUC (Methotrexate) | IC50 (Methotrexate) [nM] | AUC (Axitinib) | IC50 (Axitinib) [nM] | AUC (Vorinostat) | IC50 (Vorinostat) [nM]
CL-40 (large intestine, adherent) | 0.858 | > 10000 | 0.759 | 30.4 | 0.966 | > 200 | 0.976 | > 2000 | 0.92 | > 10000
TC-YIK (cervix, suspension) | 0.967 | > 10000 | 0.344 | 1.23 | 0.701 | 42 | 0.91 | > 2000 | 0.604 | 1160
COR-L279 (small cell lung carcinoma, suspension) | 0.969 | > 10000 | 0.28 | 0.809 | 0.785 | 76 | 0.986 | > 2000 | 0.684 | 1910
NCI-SNU-1 (stomach, suspension) | 0.956 | > 10000 | 0.84 | 36.3 | 0.927 | > 200 | 0.982 | > 2000 | 0.95 | > 10000
639-V (bladder, adherent) | 0.987 | > 10000 | 0.349 | 1.28 | 0.991 | > 200 | 0.867 | 1370 | 0.698 | 2040
JVM-2 (lymphoid neoplasm, suspension) | 0.611 | 1360 | 0.415 | 1.73 | 0.653 | 36.8 | 0.982 | > 2000 | 0.701 | 2640
NB13 (neuroblastoma, adherent) | 0.97 | > 10000 | 0.465 | 2.53 | 0.976 | > 200 | 0.955 | > 2000 | 0.704 | 2160
A388 (skin, adherent) | 0.98 | > 10000 | 0.654 | 8.95 | 0.98 | > 200 | 0.878 | > 2000 | 0.735 | 3290
CHSA0011 (chondrosarcoma, adherent) | 0.827 | 9840 | 0.699 | 14.4 | 0.978 | > 200 | 0.814 | 1700 | 0.917 | > 10000
CHP-126 (neuroblastoma, suspension) | 0.983 | > 10000 | 0.66 | 8.83 | 0.912 | > 200 | 0.868 | 1900 | 0.631 | 1450
OCI-M1 (acute myeloid leukaemia, suspension) | 0.995 | > 10000 | 0.649 | 7.25 | 0.895 | 142 | 0.979 | > 2000 | 0.538 | 772
WIL2-NS (lymphoid neoplasm, suspension) | 0.99 | > 10000 | 0.413 | 1.89 | 0.675 | 34.6 | 0.977 | > 2000 | 0.622 | 1260
EW-7 (Ewing sarcoma, semi-adherent) | 0.985 | > 10000 | 0.333 | 1.14 | 0.729 | 50.8 | 0.971 | > 2000 | 0.566 | 926
BL-41 (Burkitt lymphoma, suspension) | 0.975 | > 10000 | 0.407 | 1.85 | 0.447 | 9.3 | 0.888 | 1340 | 0.516 | 683
IM-9 (myeloma, suspension) | 0.939 | > 10000 | 0.485 | 2.87 | 0.612 | 24.2 | 0.97 | > 2000 | 0.696 | 2020
AMO-1 (haematopoietic neoplasm, suspension) | 0.872 | 7310 | 0.779 | 17.5 | 0.629 | 26.8 | 0.984 | > 2000 | 0.508 | 654
EW-11 (Ewing sarcoma, adherent) | 0.844 | > 10000 | 0.939 | > 50 | 0.893 | > 200 | 0.879 | > 2000 | 0.651 | 1860
MOLT-16 (T-cell lymphoblastic leukaemia, suspension) | 0.5 | 624 | 0.234 | 0.653 | 0.439 | 8.84 | 0.899 | 1630 | 0.459 | 496
COLO-679 (melanoma, adherent) | 0.145 | 41.1 | 0.752 | 18.4 | 0.984 | > 200 | 0.985 | > 2000 | 0.83 | 7370
JHOS-3 (ovary, adherent) | 0.982 | > 10000 | 0.821 | 40 | 0.981 | > 200 | 0.981 | > 2000 | 0.959 | > 10000
AM-38 (glioma, semi-adherent) | 0.987 | > 10000 | 0.76 | 17.9 | 0.918 | > 200 | 0.983 | > 2000 | 0.755 | 3450
OVK-18 (ovary, adherent) | 0.967 | > 10000 | 0.671 | 9.92 | 0.982 | > 200 | 0.8 | 1090 | 0.489 | 583
MKN7 (stomach, adherent) | 0.926 | > 10000 | 0.925 | > 50 | 0.979 | > 200 | 0.983 | > 2000 | 0.83 | 9510
NCI-H1155 (large cell lung carcinoma, suspension) | 0.992 | > 10000 | 0.466 | 2.57 | 0.893 | 164 | 0.923 | > 2000 | 0.71 | 2150
RH-1 (rhabdomyosarcoma, adherent) | 0.816 | 4440 | 0.439 | 2.2 | 0.9 | 182 | 0.985 | > 2000 | 0.684 | 1850

Cell Line | AUC (Dabrafenib) | IC50 (Dabrafenib) [nM] | AUC (SN-38) | IC50 (SN-38) [nM] | AUC (Methotrexate) | IC50 (Methotrexate) [nM] | AUC (Axitinib) | IC50 (Axitinib) [nM] | AUC (Vorinostat) | IC50 (Vorinostat) [nM]
5637 (bladder, adherent) | 0.981 | > 10000 | 0.49 | 2.94 | 0.891 | 194 | 0.904 | > 2000 | 0.74 | 2800
NCI-H1341 (small cell lung carcinoma, suspension) | 0.991 | > 10000 | 0.519 | 3.48 | 0.977 | > 200 | 0.937 | > 2000 | 0.6 | 1120
NCI-H2135 (non-small cell lung carcinoma, adherent) | 0.99 | > 10000 | 0.99 | > 50 | 0.991 | > 200 | 0.99 | > 2000 | 0.989 | > 10000
ES5 (Ewing sarcoma, adherent) | 0.846 | 8940 | 0.633 | 7.72 | 0.868 | > 200 | 0.819 | 1360 | 0.595 | 1180
NCI-H508 (large intestine, semi-adherent) | 0.908 | > 10000 | 0.886 | > 50 | 0.899 | > 200 | 0.947 | > 2000 | 0.571 | 1120
TUR (B-cell lymphoma, suspension) | 0.915 | > 10000 | 0.617 | 6.39 | 0.378 | 5.93 | 0.852 | 1370 | 0.541 | 799
RKN (ovary, adherent) | 0.728 | 2900 | 0.489 | 2.92 | 0.986 | > 200 | 0.98 | > 2000 | 0.683 | 2090
LB1047-RCC (kidney, adherent) | 0.511 | 671 | 0.651 | 8.65 | 0.981 | > 200 | 0.898 | > 2000 | 0.629 | 1490
HCC-827 (lung adenocarcinoma, adherent) | 0.972 | > 10000 | 0.901 | > 50 | 0.928 | > 200 | 0.974 | > 2000 | 0.8 | 5700
JEG-3 (urogenital system, adherent) | 0.985 | > 10000 | 0.734 | 13.4 | 0.98 | > 200 | 0.938 | > 2000 | 0.747 | 2930
SCC90 (head and neck, adherent) | 0.978 | > 10000 | 0.978 | > 50 | 0.981 | > 200 | 0.935 | > 2000 | 0.808 | 8120
NB12 (neuroblastoma, adherent) | 0.784 | 5870 | 0.777 | 27.5 | 0.979 | > 200 | 0.953 | > 2000 | 0.676 | 2310
HUTU-80 (digestive system, adherent) | 0.967 | > 10000 | 0.338 | 1.21 | 0.97 | > 200 | 0.713 | 441 | 0.576 | 969
ECC10 (stomach, suspension) | 0.974 | > 10000 | 0.59 | 5.59 | 0.795 | 97.8 | 0.905 | > 2000 | 0.505 | 644
EPLC-272H (lung squamous cell carcinoma, adherent) | 0.919 | > 10000 | 0.745 | 17.6 | 0.969 | > 200 | 0.941 | > 2000 | 0.787 | 4990
SKN-3 (head and neck, adherent) | 0.979 | > 10000 | 0.634 | 7.83 | 0.931 | > 200 | 0.946 | > 2000 | 0.509 | 666
OCI-AML5 (acute myeloid leukaemia, suspension) | 0.887 | 9500 | 0.57 | 4.78 | 0.875 | 167 | 0.928 | > 2000 | 0.562 | 906
EW-16 (Ewing sarcoma, adherent) | 0.935 | > 10000 | 0.425 | 1.92 | 0.895 | > 200 | 0.905 | > 2000 | 0.686 | 2130
IST-SL2 (small cell lung carcinoma, suspension) | 0.967 | > 10000 | 0.834 | 32.2 | 0.942 | > 200 | 0.918 | > 2000 | 0.618 | 1310
PC-3 [JPC-3] (lung adenocarcinoma, adherent) | 0.972 | > 10000 | 0.713 | 15.4 | 0.974 | > 200 | 0.981 | > 2000 | 0.817 | 8080
KARPAS-45 (lymphoblastic leukaemia, suspension) | 0.989 | > 10000 | 0.98 | > 50 | 0.964 | > 200 | 0.896 | 1730 | 0.349 | 259
STS-0421 (soft tissue, adherent) | 0.951 | > 10000 | 0.723 | 15.2 | 0.942 | > 200 | 0.792 | 1080 | 0.748 | 3700
WSU-NHL (lymphoid neoplasm, suspension) | 0.845 | 5950 | 0.461 | 2.48 | 0.5 | 12.5 | 0.94 | > 2000 | 0.558 | 882
LXF-289 (lung adenocarcinoma, adherent) | 0.961 | > 10000 | 0.682 | 9.96 | 0.985 | > 200 | 0.856 | 1570 | 0.67 | 1850
HT-3 (cervix, adherent) | 0.984 | > 10000 | 0.468 | 2.56 | 0.773 | 79.2 | 0.981 | > 2000 | 0.73 | 2850

A lower IC50 marks a more sensitive line; fits outside the tested doses are given as limits. AUC sums up the same curve from the lowest dose to the 256-fold higher top dose; it is 1 without any effect and falls as sensitivity rises. For some assays here: Any top dose called inferred was derived from the fitted curves, not read from the paper.
